Laboratory results as given in PubChem BioAssay AID485294 (National Center for Advancing Translational Sciences (NCATS), 2010).
In all, about 370,000 compounds went through this assay and about 150 (0.041%) were called active. Inconclusive means that the source gave no clear call. Such entries were picked first, then a sample of the others. Calls follow the shape of the dose curve; as a rule, active = well fitted inhibition curve with a large enough effect; inconclusive = small, poorly fitted or top-dose-only effect; inactive = flat fitted curve, though single readings scatter. Potencies of inconclusive entries are left out as doubtful fits.

Biological target: Beta-lactamase (Escherichia coli (strain K12)) (UniProt P00811)
Sequence of UniProt P00811 (P00811 whole entry, looked up): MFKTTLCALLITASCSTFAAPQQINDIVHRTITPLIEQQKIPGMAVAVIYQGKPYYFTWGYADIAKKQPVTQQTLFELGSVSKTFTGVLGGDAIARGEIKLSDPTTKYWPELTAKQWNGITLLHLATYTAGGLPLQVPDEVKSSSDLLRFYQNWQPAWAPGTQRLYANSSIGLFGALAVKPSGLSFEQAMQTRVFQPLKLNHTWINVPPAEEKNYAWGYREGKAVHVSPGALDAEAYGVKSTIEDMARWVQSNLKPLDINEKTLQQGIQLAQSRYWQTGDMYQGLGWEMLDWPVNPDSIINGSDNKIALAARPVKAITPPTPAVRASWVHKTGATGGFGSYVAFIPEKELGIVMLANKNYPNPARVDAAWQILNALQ
Assay: qHTS Inhibitors of AmpC Beta-Lactamase (assay with detergent); also: nearly all actives have a fitted effect of over 25% in size;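 as to activity change, negative = inhibition: 0% = no-compound wells and -100% = no-enzyme wells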
Details: AmpC hydrolysis of nitrocefin, absorbance 480 nm, 0.01% Triton; activity change, negative = inhibition: at 114 µM (top of the series)
Summary of the method: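 20 mM phosphate pH 7.0 + 0.01% (detergent screen) or 0.0001% Triton X-100; 5.3 nM AmpC reagent; cpd preinc 15 min RT; nitrocefin (800 uM stock) to start; A480 q20 s × 4 min; Activity was normalised to no-enzyme and no-compound control wells.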
Potency is read from the fitted curve at half-maximal effect; tags tell the direction and shape of the fitted curve.

Row | Compound | activity change, negative = inhibition | Potency
1 | COCCCNC(=S)Nc1ccc2nc(N3CCOCC3)cc(C)c2c1 | inactive: -1.06% | 
2 | CC(C)c1cnc2c(c1SCC(=O)NC(C)(C)C)c(=O)n(C)c(=O)n2C | inactive: 13.7% | 
3 | Cc1ccc(OCCn2cnc3c2c(=O)n(C)c(=O)n3C)cc1 |  | inconclusive [inhibitor, full curve, poor fit]
4 | CCc1ccc(-c2nc(CS(=O)CC(=O)NCCc3ccc(C)cc3)c(C)o2)cc1 (centres undefined) | inactive: 4.95% | 
5 | Cc1cc(C)cc(NC(=O)CSc2nnc(-c3ccccc3C)o2)c1 | inactive: -11.5% | 
6 | Cc1c(C(=O)Nc2ccccc2)sc2nc(-c3ccccc3)cn12 |  | inconclusive [inhibitor, full curve, poor fit]
7 | CC(C)C(=O)NC(=S)N(Cc1ccccc1)Cc1ccccc1 |  | inconclusive [inhibitor, partial curve, poor fit]
8 | CN1CCN(C(=O)c2cc3sccc3n2CC(=O)c2ccccc2)CC1 |  | inconclusive [inhibitor, partial curve]
9 | CCOC(=O)CSc1ccc(S(=O)(=O)N2CCCC2)cc1[N+](=O)[O-] | inactive: -1.44% | 
10 | CC(C)CN(CCNC(=O)c1cc(-c2cccs2)nc2ccccc12)CC(C)C |  | inconclusive [inhibitor, full curve, poor fit]
11 | O=C1CC(NS(=O)(=O)c2ccccc2F)CN1c1ccc2c(c1)OCCO2 (centres undefined) |  | inconclusive [inhibitor, full curve, poor fit]
12 | COc1ccc(C2=NO[C@@H]3C(=O)N(c4cccc(C)c4C)C(=O)[C@H]23)cc1OC |  | inconclusive [inhibitor, single point]
13 | Cc1ccc(CNC(=O)CC2C(=O)Nc3c2c(=O)n(C)c(=O)n3Cc2ccccc2)cc1 (centres undefined) |  | inconclusive [inhibitor, full curve, poor fit]
14 | COc1ccc(C(CNC(=O)C(C)(C)Oc2ccc(Cl)cc2)N2CCCC2)cc1 (centres undefined) |  | inconclusive [inhibitor, full curve]
15 | COc1ccc(Nc2ccc(OC)cc2)cc1 | inactive: -2.08% | 
16 | CCc1ccc(NC(=O)CN2C(=O)c3ccccc3Sc3ccc(C(=O)N4CCCC4)cc32)cc1 | inactive: 1.62% | 
17 | Cc1ccc(CONC(=O)c2cccc(C)c2)cc1 | inactive: 6.11% | 
18 | O=C(COC(=O)/C=C/c1ccccc1[N+](=O)[O-])NCC(F)(F)F |  | inconclusive [inhibitor, full curve, poor fit]
19 | Nc1nnc(CC(=O)N/N=C\c2ccc(-c3cccc(Cl)c3)o2)s1 |  | inconclusive [inhibitor, full curve]
20 | COc1ccc(N(CC(=O)NC2CCCCC2)S(=O)(=O)c2cccnc2)cc1 |  | inconclusive [inhibitor, partial curve, poor fit]
21 | COc1ccc(C2C3=C(CC(C)(C)CC3=O)N(CC(=O)O)C3=C2C(=O)CC(C)(C)C3)cc1OC |  | inconclusive [inhibitor, full curve, poor fit]
22 | CC(=O)N1CCN(c2ccc(NC(=O)c3cccc(Cl)c3)cc2)CC1 |  | inconclusive [inhibitor, full curve]
23 | O=C(C1CCC1)N1CCC(c2nc3c(nnn3Cc3c(F)cccc3Cl)c(=O)[nH]2)CC1 |  | inconclusive [inhibitor, partial curve]

Row | Compound | activity change, negative = inhibition | Potency
24 | CCOC(CNC(=O)Cn1nc(Cc2ccncc2)c2ccccc2c1=O)OCC |  | inconclusive [inhibitor, partial curve, poor fit]
25 | O=C(Nc1cccc(N2CCCC2)c1)c1cccs1 |  | inconclusive [inhibitor, full curve, poor fit]
26 | COc1ccccc1NC(=S)N1C2CCC1CC(NC(=O)NC13CC4CC(CC(C4)C1)C3)C2 (centres undefined) | inactive: 2.01% | 
27 | O=C(NCCCN1CCCC1=O)c1cc2nc(-c3ccco3)cc(C(F)(F)F)n2n1 | inactive: -3.9% | 
28 | COc1ccc(S(=O)(=O)N2CCN(c3ccc(F)cc3)CC2)cc1C(=O)N1CCCC1 |  | inconclusive [inhibitor, full curve, poor fit]
29 | CCCN(CCC)C(=O)c1nn(C)c2c1CSc1ccc(C)cc1-2 | inactive: 22.5% | 
30 | O=C(Nc1ccc(Cl)c(Cl)c1)Nc1cc(S(=O)(=O)N2CCOCC2)ccc1N1CCCC1 |  | inconclusive [inhibitor, partial curve, poor fit]
31 | COC(=O)C1=C(C)NC(=O)C1(NS(=O)(=O)c1ccc(C)cc1)C(F)(F)F (centres undefined) |  | inconclusive [inhibitor, single point]
32 | Cc1ccc(-c2nn(C)c(=O)c3ccccc23)cc1S(=O)(=O)N1CCCC1 |  | inconclusive [inhibitor, full curve, poor fit]
33 | Cc1nc(NCc2ccco2)c2c3c(sc2n1)CCC3 | inactive: -2.9% | 
34 | O=C(COc1ccccc1)Nc1ccc(S(=O)(=O)NCc2ccco2)cc1 |  | inconclusive [inhibitor, partial curve]
35 | O=C(NCC(c1ccco1)N1CCOCC1)C1CCCCC1 (centres undefined) |  | inconclusive [inhibitor, full curve]
36 | Cc1ccc2c(c1)c1nc3ccccc3nc1n2CCN1CCOCC1 | inactive: -7.35% | 
37 | Cc1c(C(=O)NCCC2=CCCCC2)cccc1[N+](=O)[O-] |  | inconclusive [inhibitor, partial curve]
38 | O=C(Cn1ccc2cc(S(=O)(=O)N3CCCCC3)ccc21)NCc1ccccc1Cl | inactive: 7.99% | 
39 | C/C(=N\NC(=O)c1cccc(S(=O)(=O)N2CCOCC2)c1)c1ccc(OCC(=O)N(C)C)cc1 | inactive: -8.06% | 
40 | CCOc1ccc(S(=O)(=O)N2CCCCC2)cc1NC(=O)C1CCC1 |  | inconclusive [inhibitor, full curve, poor fit]
41 | N#CCCn1nc(-c2ccccc2)cc1Nc1ccccc1NC(=O)C(F)(F)F | inactive: -9.78% | 
42 | C/C(=N\NC(=O)c1ccoc1C)c1ccccc1 | inactive: -0.0582% | 
43 | Cc1ccc(OCCCCN2CCc3ccccc3C2)cc1 |  | inconclusive [inhibitor, single point]
44 | Cc1cc(=O)n2nc(N3CCCC(C(=O)NCCc4ccccc4)C3)sc2n1 (centres undefined) |  | inconclusive [inhibitor, full curve, poor fit]
45 | CCOc1ccccc1NC(=O)CSc1nnc2ccc(-c3ccccn3)nn12 |  | inconclusive [inhibitor, single point]
46 | CCOc1ccc(OC(=O)c2ccc3c(=O)n4c(nc3c2)CCC4)cc1 |  | inconclusive [inhibitor, full curve, poor fit]

Row | Compound | activity change, negative = inhibition | Potency
47 | NC(=O)c1ccc(NC(=O)C2CCCO2)cc1 (centres undefined) | inactive: 1.78% | 
48 | O=C(NCCO)c1nc(NCCO)c2ccccc2n1 |  | inconclusive [inhibitor, full curve, poor fit]
49 | CSc1ncc(CN2CCCC(C(=O)c3ccc(C(C)(C)C)cc3)C2)cn1 (centres undefined) | inactive: -9.21% | 
50 | CCN(c1ccccc1)S(=O)(=O)c1ccc(C(=O)NCc2ccccn2)cc1 |  | inconclusive [inhibitor, full curve, poor fit]
51 | CC(=O)Nc1ccc(NC(=O)CSc2nccn2Cc2ccccc2)cc1 |  | inconclusive [inhibitor, partial curve, poor fit]
52 | CCc1ccc(S(=O)(=O)Nc2cc(SCC(=O)O)c(O)c3ccccc23)cc1 |  | inconclusive [inhibitor, single point]
53 | COc1ccc(C(=O)N2CCN(C(C)=O)CC2)cc1S(=O)(=O)NCc1ccc(Cl)cc1 |  | inconclusive [inhibitor, full curve, poor fit]
54 | CCOc1ccc2[nH]c(C(=O)N/N=C/c3cc(OC)c(OC)c(OC)c3)cc2c1 |  | inconclusive [inhibitor, single point]
55 | CCOc1cc(/C=N/NC(=O)C2CCCC2)ccc1O |  | inconclusive [inhibitor, full curve, poor fit]
56 | C=CCNc1nc(C)nc(OC)n1 |  | inconclusive [inhibitor, full curve, poor fit]
57 | CCC[n+]1c2ccccc2cc2ccccc21 |  | inconclusive [inhibitor, full curve, poor fit]
58 | CS(=O)c1ccccc1O (centres undefined) | inactive: -14.5% | 
59 | CC(=O)Nc1nc(-c2ccc3c(c2)CCO3)cs1 |  | inconclusive [inhibitor, full curve, poor fit]
60 | CCN(CC(=O)Nc1ccc(S(=O)(=O)N2CCCC2)cc1)Cc1ccccc1 |  | inconclusive [inhibitor, full curve]
61 | Cc1cccc(C)c1NC(=O)CNC(=O)C1CCCN(C(=O)c2ccc(Cl)cc2)C1 (centres undefined) | inactive: 9.78% | 
62 | COC(=O)c1sc(-c2ccccc2)cc1NC(=O)c1ccccc1 |  | inconclusive [inhibitor, full curve, poor fit]
63 | O=C(NNC1CC(=O)N(c2ccc(Br)cc2)C1=O)c1cccs1 (centres undefined) |  | inconclusive [inhibitor, full curve]
64 | CC(=O)Nc1nnc2n1CCS2 | inactive: 3.01% | 
65 | CC(C)OCCCNC(=O)C1CCN(S(=O)(=O)c2ccc3nc4c(c(C(=O)O)c3c2)CCCCC4)CC1 | inactive: -9.8% | 
66 | NC(=O)C1CCN(C2OC(=O)c3ccccc32)CC1 (centres undefined) |  | inconclusive [inhibitor, partial curve]
67 | O=C(CN1CCN(C(c2ccccc2)c2ccccc2)CC1)N1CCOCC1 |  | inconclusive [inhibitor, partial curve, poor fit]
68 | O=C(CN1C(=O)c2ccccc2C1=O)N1CCN(c2ccccc2)CC1 |  | inconclusive [inhibitor, single point]
69 | COc1ccc(C(Sc2ccccc2)c2ccccc2)cc1OC (centres undefined) |  | inconclusive [inhibitor, partial curve, poor fit]
